Measurements reported in paper PMC4336329 (PLoS ONE, 2015).
The campaign covered roughly 310,000 compounds. About 14,000 (4.5%) showed an effect of 50% or more. The effect is printed as a negative number. Some of the results follow.

Target: human ether-à-go-go-related gene (hERG) potassium channel (human, UniProt Q12809)
Assay: primary screen, population patch clamp on CHO cells stably expressing hERG
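Further: peak tail current of the secondary pulse compared with the same well before compound.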

Sequence of human ether-à-go-go-related gene (hERG) potassium channel (Q12809 whole entry, looked up): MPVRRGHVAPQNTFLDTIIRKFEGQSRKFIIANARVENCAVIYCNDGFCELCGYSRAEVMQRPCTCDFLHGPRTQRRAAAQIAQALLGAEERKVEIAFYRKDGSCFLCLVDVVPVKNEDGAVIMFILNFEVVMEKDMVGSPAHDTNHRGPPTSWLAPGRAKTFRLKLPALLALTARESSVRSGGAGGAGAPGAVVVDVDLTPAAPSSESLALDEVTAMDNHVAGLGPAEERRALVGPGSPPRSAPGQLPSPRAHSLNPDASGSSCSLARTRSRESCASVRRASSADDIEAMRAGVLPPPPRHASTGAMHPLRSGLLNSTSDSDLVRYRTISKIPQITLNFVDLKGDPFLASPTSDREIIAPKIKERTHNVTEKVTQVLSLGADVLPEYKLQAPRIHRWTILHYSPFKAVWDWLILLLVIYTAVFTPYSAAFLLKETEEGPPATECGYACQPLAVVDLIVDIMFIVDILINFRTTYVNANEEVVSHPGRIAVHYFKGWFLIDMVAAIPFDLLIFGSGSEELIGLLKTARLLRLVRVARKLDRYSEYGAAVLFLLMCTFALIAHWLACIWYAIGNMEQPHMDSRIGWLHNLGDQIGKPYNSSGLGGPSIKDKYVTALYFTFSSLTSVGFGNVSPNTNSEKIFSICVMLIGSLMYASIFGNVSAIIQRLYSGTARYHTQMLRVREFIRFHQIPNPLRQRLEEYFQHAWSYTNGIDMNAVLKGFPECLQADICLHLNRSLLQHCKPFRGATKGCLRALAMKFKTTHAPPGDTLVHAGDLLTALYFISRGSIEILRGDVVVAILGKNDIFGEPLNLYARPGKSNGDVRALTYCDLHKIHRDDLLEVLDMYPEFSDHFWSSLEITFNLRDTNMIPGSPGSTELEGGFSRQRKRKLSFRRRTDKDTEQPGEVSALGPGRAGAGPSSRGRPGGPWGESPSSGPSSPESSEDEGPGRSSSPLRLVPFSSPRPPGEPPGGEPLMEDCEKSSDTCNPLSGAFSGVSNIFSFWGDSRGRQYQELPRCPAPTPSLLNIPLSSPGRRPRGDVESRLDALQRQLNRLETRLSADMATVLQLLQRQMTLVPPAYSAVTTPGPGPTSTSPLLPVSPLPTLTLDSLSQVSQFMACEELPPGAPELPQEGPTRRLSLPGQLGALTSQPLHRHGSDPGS

Compound | hERG current change (%, negative = inhibition) at 10uM [%]
CN(C)/C=C/C(=O)c1cc(F)cc(C(F)(F)F)c1 | 11.1
CN1CCN(S(=O)(=O)c2ccc(NC(=O)c3ccc(F)cc3)cc2)CC1 | -10.9
O=c1cc(CN2CCOCC2)c2ccc(O)c(O)c2o1 | 10.1
CCn1c(SCC(=O)c2ccc(OC)cc2)nnc1C(C)NC(=O)c1ccc(OC)cc1 (stereo not shown) | 3.46
CNS(=O)(=O)c1cnccc1N1CCN(c2cccc(C)c2)CC1 | -9.27
Cc1occc1C(=O)Nc1cnn(CCCC(=O)O)c1 | 15.8
COc1ccccc1/C=N/NC(=O)C(NC(=O)c1ccccc1)=C(C)C | -9.16
O=C1CC(NNc2ccccc2)C(=O)N1c1ccccc1 (stereo not shown) | 10.3
NC(=S)c1cc2cc(Cl)ccc2oc1=O | 4.62
CC(C)(C)OC(=O)CNC(=O)c1[nH]cnc1C(=O)NCCCCCNC(=O)OC(C)(C)C | -18.4
Cc1ccc(S(=O)(=O)N2CCCOC2)cc1 | -3.68
COc1ccc(OC)c(-n2cnnn2)c1 | -3.68
COc1cccc(C(=O)NC(=S)Nc2ccc(Cl)cc2C(=O)O)c1 | 9.65
O=C(Cn1cc(C(F)(F)F)cc(Cl)c1=O)NCCc1ccccc1 | -23.8
C=CCn1c(SCC(=O)N2CCOCC2)nnc1C(C)NC(=O)c1ccccc1 (stereo not shown) | 13.4
CN(/N=C/C=C/c1ccccc1)c1cc(=O)n(C)c(=O)[nH]1 | -12.8
Cc1ccc(S(=O)(=O)NC(=O)c2cccn2C)cc1 | 14.7
CCCn1c(=O)c(C(=O)Nc2ccccc2C(=O)OCC)c(O)c2ccccc21 | 8.41
O=C(COC(=O)c1cc(S(=O)(=O)N2CCc3ccccc3C2)ccc1Cl)NCc1ccco1 | -20.2
COc1ccc(CCN=C(N)NS(=O)(=O)c2cc(F)ccc2F)cc1 | -17.2
Cc1cc(N2CCCCC2)nc(N)n1 | 27.4
O=C(c1cn(-c2ccccc2)nc1-c1cccs1)N1CCN(c2ccccn2)CC1 | -7.92

Compound | hERG current change (%, negative = inhibition) at 10uM [%]
C=COCCn1c(=N)n(CCC)c2ccccc21.Cl | -28.3
CCOC(=O)CSc1nc2c(sc3ccc([N+](=O)[O-])cc32)c(=O)n1Cc1ccco1 | -32.4
N#Cc1ccccc1CSCCNC(=O)Cc1c(F)cccc1Cl | 15.8
CCOc1ccc(S(=O)(=O)Nc2ccc(C(=O)N/N=C/c3c(C)nn(-c4ccccc4)c3N3CCCC3)cc2)cc1 | 4.05
Cc1ccc(NC(=O)Cn2c(=O)c3cccn3c3ccccc32)c(Cl)c1 | 7.07
Cc1ccc(C)c(OC(=O)c2cccnc2)c1 | 6.95
CCc1cc(=O)oc2c3c(cc(OCC(=O)NCc4ccccn4)c12)OC(C)(C)CC3 | -14.9
COC(=O)C1CCN(Cc2cc(=O)oc3cc(OC)ccc23)CC1 | -17.8
Cc1ccc2nsnc2c1NC(=O)c1ccc([N+](=O)[O-])o1 | 13.1
COC(=O)c1cc(C)sc1NC(=S)N1CCN(CCc2ccccc2)CC1 | 29.5
Cc1cccc(C(=O)NCC(=O)NCCCSc2ccccc2)c1 | -9.36
COc1cccc(-c2nc(CCl)cs2)c1OC.Cl | 5.27
CCOc1cc(C2CC(=O)c3c(ccc4ccccc34)N2)ccc1O (stereo not shown) | -3.76
Cc1ccc(NC(=O)C2C3C=CC4(O3)C2C(=O)N(CCN2CCOCC2)C4C(=O)NC2CCCCC2)cc1C (stereo not shown) | 18.5
COc1cc(/C=N/n2nnnc2N)ccc1OCc1c(C)no[n+]1[O-] | 9.97
C=CCN(CC(=O)c1sc(C(=O)OCC)nc1C)c1cccc(Br)c1 | -1.13
O=C(O)C(Cc1cc2ccccc2[nH]1)N1C(=O)C2CC=C(Cl)CC2C1=O (stereo not shown) | -4.84
O=C1c2ccc(-c3nc4ccccc4o3)cc2C(=O)N1Cc1cccnc1 | -0.0291
CCCc1nc(SCC(=O)Nc2nnc(CC)s2)c2c(C)c(C)sc2n1 | 17.8
COc1cc(OC)cc(-n2nc(C(=O)NCCCN3CCOCC3)c3ccccc3c2=O)c1 | -24.4
CCS(=O)(=O)c1nc(S(=O)(=O)c2ccc(Cl)cc2)c(N2CCN(CCO)CC2)s1 | -35.2
O=C(O)C(=O)O.O=C(c1ccco1)N1CCN(S(=O)(=O)c2ccc([N+](=O)[O-])cc2)CC1 | -39.8

Compound | hERG current change (%, negative = inhibition) at 10uM [%]
Cc1occc1C(=O)n1cnc2ccccc21 | 12.9
COC(C(=O)NC1CCCCCCC1)c1ccccc1 (stereo not shown) | -6.3
CC(C)Oc1ccc(/C=C(\C#N)C(=O)NC2CC2)cc1 | 10.1
O=S(=O)(c1cccc(-c2cn3ccccc3n2)c1)N1CCCCC1 | -31.9
Cn1nnnc1SCC(=O)Nc1cc(S(=O)(=O)N2CCCC2)ccc1Cl | 5.41
CCOC(=O)[C@H]1CCC[C@@H](NS(=O)(=O)c2ccc(NC(C)=O)cc2)C1 | 14.1
COc1ccc(-n2c3c(cc(C(=O)NCc4ccco4)c2=O)C(=O)CC(C)(C)C3)cc1 | -56.6
Cc1ncc(CO)c2c1Oc1nc(-c3ccccc3)nc(SCC(=O)Nc3cccc(O)c3)c1C2 | -37.4
CC(C)(C)[C@H]1C=C(C(N)=O)O[C@@H](OCc2ccc(CO)cc2)C1 | -2.17
CCc1ccccc1NC(=S)N(CCc1ccncc1)C(C)C | -29.6
Nc1nc(=S)n(-c2ccccc2)[nH]1 | 18.7
O=C(NCc1ccccn1)C(=O)NCC1OCCN1S(=O)(=O)c1ccc(F)cc1 (stereo not shown) | 11.7
C=CCNC(=S)NN=C1CCC(c2ccccc2)CC1 (stereo not shown) | 3.31
CS(=O)(=O)Nc1cccc2cccnc12 | 10.5
Cc1ccc(CNC(=O)c2nn(C)c(C)c2[N+](=O)[O-])cc1 | -2.23
Cc1sc(NC(=O)C2C3CCC(O3)C2C(=O)O)nc1-c1ccc(CC(C)C)cc1 (stereo not shown) | -1.32
COc1ccc(C2c3c(ccc4ccccc34)Oc3ncn4nc(-c5ccco5)nc4c32)cc1 (stereo not shown) | -12.4
COc1ccc(Cn2nnnc2CN2CCOCC2)cc1 | -6.11
CCN(CC)c1ccc(/C=N/NC(=O)CNC(=O)c2ccc3c(c2)OCCO3)cc1 | -5.14
COc1ccc(C(=O)CCC(=O)N2CCN(c3ccc([N+](=O)[O-])cc3)CC2)cc1 | -63.8
CC1CCCCN1C(=O)CN1CCN(S(=O)(=O)c2ccc(Br)cc2Cl)CC1 (stereo not shown) | -41.6
COc1ccc(CN2CCNC(=O)C2CC(=O)N(C)Cc2ccon2)c(OC)c1 (stereo not shown) | 14.6

Compound | hERG current change (%, negative = inhibition) at 10uM [%]
COc1ccc(/C=N/n2cnnc2SCCO)cc1OC | 2.24
CN(C)CCC(=O)c1ccc2c(c1)OCO2.Cl | 10.7
O=C(CSc1nnc(CNC(=O)c2cccc(C(F)(F)F)c2)o1)NCc1ccco1 | 8.83
CN(CC(=O)Nc1cc(S(=O)(=O)N2CCCCCC2)ccc1Cl)Cc1ccc2c(c1)OCO2 | -5.85
Cc1cc(C(F)(F)F)nc(SCC(=O)NC2CC3CCC2C3)n1 (stereo not shown) | -19.6
CC(Oc1ccc(Cl)cc1Cl)C(=O)NNC(=O)C(=O)N1CCCCC1 (stereo not shown) | 0.728
COC1CC(OC2CCC3(C)C(CCC4C3CCC3(C)C(C5=CC(=O)OC5)C(OC(C)=O)CC43O)C2)OC(C)C1OC1OC(COC2OC(CO)C(O)C(O)C2O)C(O)C(O)C1O (stereo not shown) | 11.6
O=C(NCC(c1ccco1)N1CCN(c2ccccc2F)CC1)C(=O)NC1CCCC1 (stereo not shown) | -2.4
COc1ccc(SCCc2nnc(-c3ccccc3)o2)cc1 | 6.5
COc1ccccc1/C=C/C(=O)NNC(=O)c1cccs1 | 2.91
COCCNC(=O)C1CC(=O)N(c2ccc(F)c(Cl)c2)C1 (stereo not shown) | -2.89
COc1ccc(C(=O)NC(=S)NNC(=O)c2cnccn2)cc1OC | 12.2
CCOCCCN1CC(C(=O)NCCc2ccc(C)cc2)CC1=O (stereo not shown) | 9.58
O=C(NCC(c1cccnc1)N1CCN(c2ccccc2F)CC1)Oc1ccccc1 (stereo not shown) | -5.55
O=C1CCCC(=O)N1c1ccc(N2CCOCC2)c([N+](=O)[O-])c1 | 17.5
CCn1c(C)c(C(C)=O)c(N2CCN(C(c3ccccc3)c3ccccc3)CC2)nc1=S | -2.41
CC(=O)NC12CC3CC(C1)CC(C(=O)NCc1ccc(C)cc1)(C3)C2 | 19.8
COc1ccc(CCNC(=O)CSCC(=O)Nc2ccccc2)cc1OC | 17.8
Cn1c2ccccc2c(=O)c2ccc(-c3ccc4c(c3)OCO4)cc21 | 13.1
CCOC(=O)c1c(C)[nH]c(C)c1C(=O)COC(=O)/C=C/c1ccco1 | -3.81
CC1=Nc2ccccc2NC(=O)C1Sc1nnc(C)s1 (stereo not shown) | -12.6
CCNS(=O)(=O)c1ccc(NC(=O)c2ccccc2)cc1 | -14.7
